Publication PMC7961618, “Inhibitor Development against p7 Channel in Hepatitis C Virus” (Molecules, 2021)
Where two headings read alike, the source gives them in different places.

Test system: HCV (JFH1 strain with adaptive mutations)
Test: microbe, parasite or virus in culture
Type: cell-based
Settings: compound 12 h, read-out: IC50 against HCV (inhibition of HCV production)
[1] = Hepatitis C virus, Huh-7.5.1, Huh7.5.1 cells infected by JFH1 at MOI 2 for 1 day

| Structure (SMILES) | IC50 [1] [µM] | IC50 (Huh7.5.1 cells infected by JFH1 at MOI 2 for 1 day) [µM] |
| --- | --- | --- |
| NC(CNC(=O)CCOCCC(=O)NCC(N)C12CC3CC(CC(C3)C1)C2)C12CC3CC(CC(C3)C1)C2 (stereo not shown) [ARD87] | 5.14 | – |
| CC(N)C12CC3CC(CC(C3)C1)C2 (stereo not shown) [Rimantadine, reference compound] | 11.9 | – |
| CC1(NCc2nnc(-c3cc(O)cc(O)c3)[nH]2)C2CC3CC(C2)CC1C3 (stereo not shown) [ARD112] | 6.42 | 6.44 |
